Source: publication PMC4336329 (PLoS ONE, 2015)
Out of some 310,000 compounds screened, about 2,200 (0.71%) showed an effect of 50% or more. Effects have a minus sign here. Some of the results follow.

biological target: human ether-à-go-go-related gene (hERG) potassium channel (human, UniProt Q12809); assay: primary screen, population patch clamp on CHO cells stably expressing hERG
Sequence (Q12809 whole entry, looked up): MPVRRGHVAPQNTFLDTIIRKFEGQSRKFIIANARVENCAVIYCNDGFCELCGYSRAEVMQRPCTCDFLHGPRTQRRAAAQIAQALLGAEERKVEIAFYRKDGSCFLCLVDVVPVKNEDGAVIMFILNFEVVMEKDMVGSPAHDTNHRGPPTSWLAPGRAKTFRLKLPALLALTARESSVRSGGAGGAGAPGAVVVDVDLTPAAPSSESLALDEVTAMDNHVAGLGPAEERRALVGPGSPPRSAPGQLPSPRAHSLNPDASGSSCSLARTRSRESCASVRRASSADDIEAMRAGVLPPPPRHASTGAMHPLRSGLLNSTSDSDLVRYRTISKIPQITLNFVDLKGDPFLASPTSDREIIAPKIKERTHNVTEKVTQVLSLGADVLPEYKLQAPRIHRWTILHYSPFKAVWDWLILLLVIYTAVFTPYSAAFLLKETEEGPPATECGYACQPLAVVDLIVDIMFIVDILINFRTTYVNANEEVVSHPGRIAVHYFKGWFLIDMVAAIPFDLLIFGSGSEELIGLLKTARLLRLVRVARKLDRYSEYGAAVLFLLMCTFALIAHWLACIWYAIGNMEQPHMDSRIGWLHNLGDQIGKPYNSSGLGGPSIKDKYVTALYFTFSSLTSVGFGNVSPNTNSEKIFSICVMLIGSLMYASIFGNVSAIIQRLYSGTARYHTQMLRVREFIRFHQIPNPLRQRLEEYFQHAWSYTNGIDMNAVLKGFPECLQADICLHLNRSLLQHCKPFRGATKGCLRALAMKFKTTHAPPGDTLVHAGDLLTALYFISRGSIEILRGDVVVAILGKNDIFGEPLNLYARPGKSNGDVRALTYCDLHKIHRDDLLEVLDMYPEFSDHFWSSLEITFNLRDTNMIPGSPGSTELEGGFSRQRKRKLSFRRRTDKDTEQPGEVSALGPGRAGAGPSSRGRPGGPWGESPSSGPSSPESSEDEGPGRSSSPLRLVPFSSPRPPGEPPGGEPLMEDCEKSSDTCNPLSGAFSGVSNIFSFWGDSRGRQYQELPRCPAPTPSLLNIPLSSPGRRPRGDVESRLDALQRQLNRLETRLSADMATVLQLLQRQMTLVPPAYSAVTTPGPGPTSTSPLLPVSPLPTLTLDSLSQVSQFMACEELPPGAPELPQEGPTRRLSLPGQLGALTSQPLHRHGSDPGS

SMILES	hERG current change (%, negative = inhibition) at 1uM
Cc1ccc(Sc2ccncc2S(N)(=O)=O)cc1	6.44%
CC(=O)c1ccc(NC(=O)Cn2nc(C)c([N+](=O)[O-])c2C)cc1	11.3%
CCOP(=O)(c1c(F)c(F)c(F)c(F)c1F)C1(O)CCCCC1 (stereo not shown)	2.85%
Cc1ccc(S(=O)(=O)Oc2cccc(/C=N/Nc3ccc(C(=O)O)cc3)c2)cc1	4.12%
COc1nc(NCCN2CCOCC2)nc(Nc2ccccc2)n1	-15.6%
O=C(NCC1OCCc2ccccc21)c1ccc(NC(=O)c2ccc(Cl)cc2Cl)cc1 (stereo not shown)	10.7%
CNC(C)C#Cc1ccc2oc3cc(C)c(C)cc3c(=O)c2c1 (stereo not shown)	12.1%
Cl.c1ccc(-c2nc(NCC3CCCO3)c3oc4ccccc4c3n2)cc1 (stereo not shown)	-5.01%
Cc1ccc(NC(=O)C2CC(=O)N(CCc3ccccc3)C2)c(C)c1 (stereo not shown)	2.1%
CC(C)(C)n1nnnc1C(c1cccs1)N(Cc1ccc(Cl)cc1)CC1CCCO1 (stereo not shown)	-2.4%
COCC(C)n1c(SCC(=O)NC(=O)NC2CCCC2)nc2ccccc2c1=O (stereo not shown)	5.86%
O=C(NCc1ccco1)C1CCN(S(=O)(=O)N2CCOCC2)CC1	2.3%
Cc1ccc(C(=O)N2CCC3(CC2)Oc2ccc(Cl)cc2C(=O)C32CC(c3cccnc3)=NO2)s1 (stereo not shown)	3.11%
CCOC(=O)C1CCN(c2ncnc3c2cnn3-c2ccccc2)CC1	-10.7%
Clc1cccc(-c2nnc(-c3ccccc3)o2)c1	4.06%
CC(C)C(=O)NCCCc1ccccc1	11.7%
Cc1ccc2c(CC(=O)NCC(C)(C)N3CCOCC3)coc2c1	6.91%
CCc1ccc(OC(C)C(=O)Nc2ccc(S(=O)(=O)Nc3cc(C)on3)cc2)cc1 (stereo not shown)	11.6%
Cc1noc(C)c1COC(=O)[C@@H](NC(=O)c1ccccc1Cl)C(C)C	12.6%
O=[N+]([O-])c1cccc(S(=O)(=O)NCCOc2cccc3cccnc23)c1	10.9%
O=C(NC(Cc1c[nH]c2ccccc12)C(=O)O)/C(=C/c1ccc(F)cc1)NC(=O)c1ccccc1 (stereo not shown)	3.84%
O=C(c1ccc(-c2cc(Cl)ccc2Cl)o1)N1CCOCC1	3.23%

SMILES	hERG current change (%, negative = inhibition) at 1uM
Cc1ccc(C(=O)N/C(=C/c2ccc(-c3cccc([N+](=O)[O-])c3)o2)C(=O)NC(C)(C)C)cc1	-0.682%
CCOc1cnn(Cc2ccccc2)c(=O)c1SCc1ccccc1	-4.38%
Cc1ccc(-c2nnn(CC(=O)N(c3ccccc3)C(C(=O)NC3CCCC3)c3ccncc3)n2)o1 (stereo not shown)	12.9%
Nc1nc(Cl)nc2c1ncn2C1CC(O)C(CO)O1 (stereo not shown)	16.9%
CC1CCN(C(=O)C2CCC(CNS(=O)(=O)c3cccc4cccnc34)CC2)CC1 (stereo not shown)	11%
COc1ccc(S(=O)(=O)N2CCC(C(=O)N[C@H](C(=O)N3CCCC3)C(C)C)CC2)cc1	12.5%
COc1cc(C(C(=O)Nc2c(C)cccc2C)N(C)C(=O)c2ccc(-n3cnnn3)cc2)ccc1O (stereo not shown)	-20.6%
N#CC1(c2ccccc2)CCN(S(=O)(=O)c2ccc(OC(F)(F)F)cc2)CC1	11.6%
Nc1nc(SCC(=O)NCCc2ccccc2)[nH]c(=O)c1-c1ccccc1	13.7%
Cc1ccc(Oc2ncnc(N)c2[N+](=O)[O-])cc1C	17.6%
Cc1c(Cl)cccc1NC(=O)c1cccc(OC(F)F)c1	-3.05%
O=C(NCCN1CCOCC1)c1ccc(Cl)c(S(=O)(=O)N2CCCC2)c1	8.01%
OCC1(CCOc2ccccc2)CCN(CCCn2cccn2)CC1	-43.3%
O=C(c1ccc2c(c1)OCCO2)C1CCN(C(=O)c2ccc(F)cc2)CC1	4.28%
CC1CN(C)C(C)c2c1oc1ccc([N+](=O)[O-])cc21 (stereo not shown)	2.24%
COc1cc(OC)c(OC)cc1/C=C1\Oc2cc(OS(C)(=O)=O)ccc2C1=O	0.261%
CCOc1cc(/C=N/NC(=O)c2nn(C)cc2Br)ccc1OCc1ccccc1Cl	-1.64%
CCCCN1C(N)=NC[C@@H]1CC1CCCCC1	8.96%
O=C1/C(=C/c2ccco2)SC(=S)N1C1CCS(=O)(=O)C1 (stereo not shown)	10.4%
O=C(O)CSc1nnc(COc2cccc3ccccc23)o1	16%
COc1ccc(CCNS(=O)(=O)c2cnc(Cl)c(Br)c2)cc1OC	17.3%
